# Data as given in PubChem BioAssay AID1240 (Sanford-Burnham Center for Chemical Genomics, 2008).
# In all, about 50,000 compounds went through this assay and about 800 (1.6%) showed an effect of 50% or more. The list shows a part of the results.
# Target: Bcl-2-like protein 10 (Homo sapiens) (UniProt Q9HD36)
# Assay: Phenotype converters, Bcl-B/TR3 peptide binding displacement, primary biochemical FP (AID 1240);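 also: 0% = Bcl-B with tracer peptide and DMSO and 100% = tracer peptide lacking Bcl-B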
# Conditions: GST-Bcl-B / FITC-TR3 peptide fluorescence polarization; stronger effect = higher value; compound at 3.75 mg/L
# Chain of UniProt Q9HD36 (Q9HD36 whole entry, looked up): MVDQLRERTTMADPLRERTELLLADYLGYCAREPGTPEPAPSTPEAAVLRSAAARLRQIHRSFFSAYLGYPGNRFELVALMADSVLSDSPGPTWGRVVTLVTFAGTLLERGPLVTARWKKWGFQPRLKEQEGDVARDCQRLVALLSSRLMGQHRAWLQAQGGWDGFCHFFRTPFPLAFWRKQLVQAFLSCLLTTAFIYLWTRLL
row,SMILES,displacement [%]
1,Cc1ccccc1NC(=S)NC(=O)/C=C/c1ccccc1,12.7
2,CN(C)CCCN1C(=O)CSC1c1cccc([N+](=O)[O-])c1 (centres undefined),-7.8
3,CC(=O)c1sc(Nc2ccc(Br)cc2)nc1C,-1
4,O=C1OC(c2ccc(Cl)cc2)=C/C1=C\c1ccccc1,-9.7
5,COc1ccc(/C=C2/SC(=S)N(CCc3ccccc3)C2=O)cc1OC,105
6,C=CCN1C(=O)/C(=C/c2ccccc2OCc2ccc([N+](=O)[O-])cc2)SC1=S,12.1
7,COc1cc(C2Nc3ccccc3NC3=C2C(=O)CC(c2ccc4c(c2)OCO4)C3)ccc1OC(C)=O (centres undefined),7.4
8,CCOc1cc(-c2ccc(OC)c(OC)c2)cc(=O)c2c(C)oc(C)c12,4.7
9,CCOC(=O)c1c(N2C(=O)CC(Sc3ccccc3C(=O)O)C2=O)sc2c1CCCC2 (centres undefined),-2.5
10,N=C1S/C(=C\c2ccc(-c3ccccc3C(=O)O)o2)C(=O)N1c1ccc2c(c1)OCO2,-2.2
11,CC(C)(C)c1ccc(CSc2nnnn2-c2ccccc2)cc1,-3
12,C=C(Br)Cn1c(COc2ccccc2)nc2ccccc21,-13.5
13,COC(=O)C1=NN(C(=O)OC(C)(C)C)C(O)(C(C)(C)C)C1 (centres undefined),7.6
14,COC(=O)c1c(-c2ccc(F)cc2)csc1NC(=O)C1CCCCC1C(=O)O (centres undefined),-0.2
15,COC(=O)c1cc(NC(=O)c2cc3ccccc3o2)cc(C(=O)OC)c1,18.4
16,COc1cccc(/C=C/c2nc3ccccc3c(=O)[nH]2)c1O,4.9
17,COc1ccc2c(c1OC)C(=O)N(c1cccc(C)c1)C2,-10.2
18,CCCCNC(=O)C(=O)NCCCOC,2.3
19,CC1=C(C(=O)Nc2ccccc2)C(c2ccccc2Br)NC(=O)N1 (centres undefined),-1.2
20,O=C(/C=C/c1ccccc1)Nc1ccccc1C#Cc1ccccc1,-11.6
21,Cc1c(Cc2ccccc2)c(=O)n2c([nH]c3ccccc32)c1C#N,-6
22,COc1ccc(S(=O)(=O)N2CCN(Cc3cccc(Cl)c3)CC2)cc1,6.8
23,CC(=O)NS(=O)(=O)c1ccc(NC(=O)Cc2ccccc2)cc1,3.2
24,CC(=O)c1ccc(NC(=O)Nc2ccccc2C)cc1,4.6
25,CC(C)(C)OC(=O)NNC(=O)c1ccco1,-3.1
26,O=C(Nc1ccccc1)c1ccc(NS(=O)(=O)c2ccc(Br)cc2)cc1,12.3
27,O=C1CC2c3ccccc3C1C1C(=O)N(c3ccccc3)C(=O)C21 (centres undefined),-6.8

row,SMILES,displacement [%]
1,O=C1OC(c2ccc(Cl)cc2)=C/C1=C\c1cccs1,-8.7
2,Cc1cccc(OCCN2CCOCC2)c1,7.8
3,COc1ccc(Cl)cc1C(=O)Nc1ccc(Br)cc1,10.8
4,Cc1cc(=O)[nH]c(-n2nc(C)c(Oc3ccccc3O)c2C)n1,-23.7
5,Cc1ccc2ccc(S(=O)(=O)n3nnc4ccccc43)cc2c1,7.2
6,CCOc1ccccc1NC(=O)c1ccc(CN2CCc3ccccc3C2)cc1,10.7
7,O=C(COc1cccc2ccccc12)NCc1cccnc1,8.3
8,COc1ccc2oc(=O)c(-c3csc(N/N=C/c4ccco4)n3)cc2c1,-3.1
9,CCc1ccccc1NC(=O)CN(c1ccccc1OC)S(=O)(=O)c1ccccc1,0.6
10,Cc1cc(/C=N/n2cnnc2)c(C)n1-c1ccc(F)cc1,-18
11,N#C/C(=C/c1cccc(F)c1)C(=O)Nc1cccc(Br)c1,-19.5
12,Cc1ccc(NC(=O)C2CCCCC2C(=O)O)nc1 (centres undefined),-2.8
13,C=CCOc1ccc(/C=C2/C(=O)NC(=S)N(CC=C)C2=O)cc1OCC,-3.3
14,CN1C(=O)C(=Cc2ccc(-c3cc([N+](=O)[O-])ccc3O)o2)C(=O)N(C)C1=O,12.7
15,Cc1cc(C(=O)N2CCN(c3ccc(Cl)cc3)CC2)ccc1[N+](=O)[O-],-6.9
16,CCCOc1ccc(CN(C)C)cc1CN(C)C,-0.9
17,COC(=O)c1ccccc1NC(=O)CCOc1ccccc1,-4
18,CCOC(=O)c1ccc(NC(=O)c2cc(Cl)c(OC)c(Cl)c2)cc1,11.6
19,CCOc1c(Cl)cc(C=C2C(=O)NC(=O)NC2=O)cc1Cl,-5.7
20,Cc1cccc(NC(=O)C(=O)NCCC(C)C)c1C,-9.7
21,O=C1c2ccccc2C(=O)N1CCSc1ncn[nH]1,8.8
22,O=C1c2ccccc2C(=O)C1(Nc1ccc(I)cc1)c1ccccc1,3.7
23,c1cc(NCc2ccc3c(c2)OCO3)cc(-c2nc3ccccc3o2)c1,2.8
24,COc1ccc(OCC(=O)NC2CC(C)(C)NC(C)(C)C2)cc1,-0.7
25,Cc1ccccc1C(=O)N1CCN(Cc2ccccc2)CC1,-12.3
26,CCOc1cc(C(=O)N2CCc3ccccc3C2)cc(OCC)c1OCC,-9.7
27,CC(C)(C)c1nc(Cc2ccc([N+](=O)[O-])cc2)no1,-7.4
